Data as given in article PMC4336329 (PLoS ONE, 2015).
Out of some 310,000 compounds screened, about 14,000 (4.5%) showed an effect of 50% or more. The effect is printed as a negative number. This is one part of the list.
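Also: peak tail current of the secondary pulse compared with the same well before compound.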

The compounds below were run against human ether-à-go-go-related gene (hERG) potassium channel (human, UniProt Q12809) (assay: primary screen, population patch clamp on CHO cells stably expressing hERG).
human ether-à-go-go-related gene (hERG) potassium channel, sequence (Q12809 whole entry, looked up): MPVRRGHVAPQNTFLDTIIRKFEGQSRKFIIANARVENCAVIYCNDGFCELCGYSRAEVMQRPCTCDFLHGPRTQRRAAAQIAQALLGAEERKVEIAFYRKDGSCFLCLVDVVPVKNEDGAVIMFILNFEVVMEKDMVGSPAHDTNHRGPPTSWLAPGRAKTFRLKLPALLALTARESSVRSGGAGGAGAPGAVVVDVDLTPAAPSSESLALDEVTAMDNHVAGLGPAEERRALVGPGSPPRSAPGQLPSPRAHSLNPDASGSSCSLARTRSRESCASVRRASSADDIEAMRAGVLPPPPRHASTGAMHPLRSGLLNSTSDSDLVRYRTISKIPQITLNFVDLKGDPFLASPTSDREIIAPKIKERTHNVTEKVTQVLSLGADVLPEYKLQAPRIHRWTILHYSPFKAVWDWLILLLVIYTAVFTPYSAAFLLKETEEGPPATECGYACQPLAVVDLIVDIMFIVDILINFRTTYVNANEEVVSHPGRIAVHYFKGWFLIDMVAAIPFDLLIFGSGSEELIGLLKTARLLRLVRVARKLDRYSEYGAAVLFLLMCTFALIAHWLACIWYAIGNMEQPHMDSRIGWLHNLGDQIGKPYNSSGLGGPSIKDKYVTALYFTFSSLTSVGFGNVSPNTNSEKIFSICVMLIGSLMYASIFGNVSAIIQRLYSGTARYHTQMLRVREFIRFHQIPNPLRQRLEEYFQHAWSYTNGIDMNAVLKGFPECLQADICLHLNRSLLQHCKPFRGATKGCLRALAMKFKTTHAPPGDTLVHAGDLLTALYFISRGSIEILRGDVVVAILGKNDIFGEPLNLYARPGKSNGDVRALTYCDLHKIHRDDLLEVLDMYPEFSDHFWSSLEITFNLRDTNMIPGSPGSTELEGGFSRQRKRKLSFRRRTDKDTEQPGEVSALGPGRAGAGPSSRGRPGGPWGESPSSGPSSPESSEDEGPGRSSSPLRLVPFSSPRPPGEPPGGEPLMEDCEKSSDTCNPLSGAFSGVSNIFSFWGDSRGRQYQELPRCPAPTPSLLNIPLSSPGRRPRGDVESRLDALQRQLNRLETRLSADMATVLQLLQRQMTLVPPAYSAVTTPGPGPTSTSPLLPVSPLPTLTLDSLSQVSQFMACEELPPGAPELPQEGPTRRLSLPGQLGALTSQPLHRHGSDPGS
For `Cc1ccc(S(=O)(=O)Nc2ccccc2-c2ccccc2)cc1`, the “hERG current change (%, negative = inhibition) at 10uM” value was 5.03%.
For `OC(COc1ccc(F)cc1)CN1CCN(CC(O)COc2ccc(F)cc2)CC1` (centres unmarked), the “hERG current change (%, negative = inhibition) at 10uM” value was -71.5%.
For `CCOc1ccc(C(=O)CCC(=O)NNC(=O)c2ccncc2)cc1`, the “hERG current change (%, negative = inhibition) at 10uM” value was 7.66%.
With `CC(=O)c1cccc(NC(=O)C2CCN(S(C)(=O)=O)CC2)c1` the “hERG current change (%, negative = inhibition) at 10uM” value was 9.7%.
With `COc1ccc(CNC(=O)CCc2nnc3ccc(N4CCC5(CC4)OCCO5)nn23)cc1` the “hERG current change (%, negative = inhibition) at 10uM” value was 15.1%.
With `N#Cc1ccc(OCC(=O)OCC(=O)Nc2sccc2C(N)=O)cc1` the “hERG current change (%, negative = inhibition) at 10uM” value was 11%.
With `O=C(NN1C(=O)C2C3c4ccccc4C(c4ccccc43)C2C1=O)C1CC1` (centres unmarked) the “hERG current change (%, negative = inhibition) at 10uM” value was 8.93%.
In the case of `C=CCn1cnc2scc(-c3ccc(C)cc3)c2c1=O`, the “hERG current change (%, negative = inhibition) at 10uM” value is reported as -10.4%.
`COc1ccccc1NC(=O)c1ccc(-n2cncn2)nc1` was tested, and the “hERG current change (%, negative = inhibition) at 10uM” value was -6.21%.
`NS(=O)(=O)c1ccc(NC(=O)COC(=O)/C(=C/c2cccs2)c2cccs2)cc1` was tested, and the “hERG current change (%, negative = inhibition) at 10uM” value was 3.49%.
For `COc1cc(CN2CCN(Cc3ccco3)CC2)cc(OC)c1.O=C(O)C(=O)O`, the “hERG current change (%, negative = inhibition) at 10uM” value was -1.79%.
In the case of `O=C(NCc1ccccc1)C1CCCN(S(=O)(=O)c2cccs2)C1` (centres unmarked), the “hERG current change (%, negative = inhibition) at 10uM” value is reported as -0.56%.
`CC(=O)c1cccc(S(=O)(=O)Nc2ccc(N3CCOCC3)cc2)c1` was tested, and the “hERG current change (%, negative = inhibition) at 10uM” value was 12.4%.
`CC(=O)c1ccc(OCC(=O)c2cc(C)n(-c3ccc4c(c3)OCO4)c2C)cc1` was tested, and the “hERG current change (%, negative = inhibition) at 10uM” value was 6.16%.
For `Cc1cc(S(=O)(=O)N2CCOCC2)ccc1OCC(=O)N1CCOCC1`, the “hERG current change (%, negative = inhibition) at 10uM” value was 13.4%.
With `C/C(=N\Nc1cc(N2CCOCC2)ncn1)c1ccc(O)cc1` the “hERG current change (%, negative = inhibition) at 10uM” value was 7.97%.
For `O=C(CN1CCOCC1)NCCc1ccccc1`, the “hERG current change (%, negative = inhibition) at 10uM” value was 16.4%.
For `COC(=O)C1C2C=CC3(CN(c4cccc(Cl)c4)C(=O)C13)O2` (centres unmarked), the “hERG current change (%, negative = inhibition) at 10uM” value was 2.49%.
In the case of `Cc1nn(C)c(C)c1NC(=O)CC12CC3CC(CC(C3)C1)C2`, the “hERG current change (%, negative = inhibition) at 10uM” value is reported as 2.75%.
For `CC(C)(C)NC(=O)CN(C(=O)c1snc(C(=O)NC2CCCCC2)c1N)c1ccccc1F`, the “hERG current change (%, negative = inhibition) at 10uM” value was 20.3%.
For `Cc1cc(C)nc(NS(=O)(=O)c2ccc(NC(=O)CSc3nc(-c4ccccc4)c(C#N)c(=O)[nH]3)cc2)n1`, the “hERG current change (%, negative = inhibition) at 10uM” value was 16.5%.
`O=C1N/C(=C/c2ccco2)C(=O)N1Cc1ccccc1F` was tested, and the “hERG current change (%, negative = inhibition) at 10uM” value was 5.32%.
With `CC(C)c1ccc(CNc2nc3nc4c(c(=O)n3[nH]2)CCC4)cc1` the “hERG current change (%, negative = inhibition) at 10uM” value was 3.74%.
In the case of `COc1cc(C)c(CN2CCN(c3ccccc3)CC2)cc1C`, the “hERG current change (%, negative = inhibition) at 10uM” value is reported as -30.2%.
With `O=C(Nc1ccc2nc(-c3cccs3)c(-c3cccs3)nc2c1)NC1CC1` the “hERG current change (%, negative = inhibition) at 10uM” value was 4.84%.
For `CC(CN1CCOCC1)OC(=O)CCc1ccccc1` (centres unmarked), the “hERG current change (%, negative = inhibition) at 10uM” value was 11.8%.
In the case of `CC(=O)Nc1ccc(S(=O)(=O)NC(C(=O)O)C(C)C)cc1` (centres unmarked), the “hERG current change (%, negative = inhibition) at 10uM” value is reported as -1.28%.
In the case of `Cc1ccc(S(=O)(=O)Nc2ccc3[nH]ccc3c2)cc1`, the “hERG current change (%, negative = inhibition) at 10uM” value is reported as -9.71%.
In the case of `CC(OC(=O)c1cccc(O)c1)C(=O)N(C)Cc1ccccc1` (centres unmarked), the “hERG current change (%, negative = inhibition) at 10uM” value is reported as 13.2%.
In the case of `COc1ccc(Oc2cc(Cl)nc(N)n2)cc1`, the “hERG current change (%, negative = inhibition) at 10uM” value is reported as 9.99%.
`O=C(Nc1c(C(=O)N2CCOCC2)cnn1-c1ccccc1)c1ccco1` was tested, and the “hERG current change (%, negative = inhibition) at 10uM” value was 9.14%.
`CN(Cc1nccn1C)C(=O)c1cc(COc2ccc3ncccc3c2)on1` was tested, and the “hERG current change (%, negative = inhibition) at 10uM” value was 10.5%.
For `Cc1ccccc1-n1c(SCC(=O)N(C)C2CCS(=O)(=O)C2)nc2ccccc2c1=O` (centres unmarked), the “hERG current change (%, negative = inhibition) at 10uM” value was 11.6%.
`CCCCOc1ccc(Cl)cc1CSc1nnc(C)n1N` was tested, and the “hERG current change (%, negative = inhibition) at 10uM” value was -6%.
`O=S(=O)(/N=C(/Nc1ccccn1)c1ccccc1)c1ccccc1` was tested, and the “hERG current change (%, negative = inhibition) at 10uM” value was 13.3%.
For `CC(C)CCNC(=O)CCCCn1c(=O)[nH]c2ccsc2c1=O`, the “hERG current change (%, negative = inhibition) at 10uM” value was -3.35%.
With `CN(C)c1ccc(-c2n(C)c3ccccc3[n+]2C)cc1.[Cl-]` the “hERG current change (%, negative = inhibition) at 10uM” value was -5.53%.
With `CCCCc1ccc2[nH]cc(CCN)c2c1.Cl` the “hERG current change (%, negative = inhibition) at 10uM” value was -9.69%.
For `Fc1ccc(N2CCN(Cc3cnc(Oc4ccc(Br)cc4)s3)CC2)cc1`, the “hERG current change (%, negative = inhibition) at 10uM” value was 13.1%.
For `COc1ccc(OC)c(NC(=O)CCN2C(=O)c3ccccc3C2=O)c1`, the “hERG current change (%, negative = inhibition) at 10uM” value was 19.5%.
`Cc1cc(S(=O)(=O)N2CCC(NC(=O)C34CC5CC(CC(C5)C3)C4)CC2)ccc1-n1cnnn1` was tested, and the “hERG current change (%, negative = inhibition) at 10uM” value was -15.2%.
`O=C1NC2(CCCCCC2)Cc2ccccc21` was tested, and the “hERG current change (%, negative = inhibition) at 10uM” value was -21.2%.
With `Cc1ccc(Nc2nc3ccccc3n3nnnc23)cc1` the “hERG current change (%, negative = inhibition) at 10uM” value was 24.9%.
`COc1ccc(NC(=O)c2cccc(NS(=O)(=O)c3ccccc3)c2)cc1` was tested, and the “hERG current change (%, negative = inhibition) at 10uM” value was 6.54%.
